Source: the supplement of paper PMC3334620
The full ranking holds about 33,000 sequences; the median of “E-score (-0.5 to 0.5)” is about -0.053, and the highest 2% start at about 0.37. The list shows a part of the results.

Target: Hap1 (UniProt P0CE41)
Experiment: PBM E-score (8-mer binding enrichment) (E-score (-0.5 to 0.5)); higher = stronger / more preferred TF binding; most listed sequences are background and not binding sites
Details: protein concentration: 200 nM; construct: GST-DNA-binding domain
Method in brief: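 Using PURExpress in vitro transcription/translation, GST-tagged yeast transcription factors were made in full-length or DNA-binding-domain form. These were applied at about 100-200 nM to double-stranded universal all-10-mer Agilent arrays, and bound protein was detected with fluorescent anti-GST. Scans were normalised with masliner before the Universal PBM Analysis Suite assigned E-scores to ungapped eight-base words pooled with their reverse complements.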

UniProt P0CE41, sequence (P0CE41 whole entry): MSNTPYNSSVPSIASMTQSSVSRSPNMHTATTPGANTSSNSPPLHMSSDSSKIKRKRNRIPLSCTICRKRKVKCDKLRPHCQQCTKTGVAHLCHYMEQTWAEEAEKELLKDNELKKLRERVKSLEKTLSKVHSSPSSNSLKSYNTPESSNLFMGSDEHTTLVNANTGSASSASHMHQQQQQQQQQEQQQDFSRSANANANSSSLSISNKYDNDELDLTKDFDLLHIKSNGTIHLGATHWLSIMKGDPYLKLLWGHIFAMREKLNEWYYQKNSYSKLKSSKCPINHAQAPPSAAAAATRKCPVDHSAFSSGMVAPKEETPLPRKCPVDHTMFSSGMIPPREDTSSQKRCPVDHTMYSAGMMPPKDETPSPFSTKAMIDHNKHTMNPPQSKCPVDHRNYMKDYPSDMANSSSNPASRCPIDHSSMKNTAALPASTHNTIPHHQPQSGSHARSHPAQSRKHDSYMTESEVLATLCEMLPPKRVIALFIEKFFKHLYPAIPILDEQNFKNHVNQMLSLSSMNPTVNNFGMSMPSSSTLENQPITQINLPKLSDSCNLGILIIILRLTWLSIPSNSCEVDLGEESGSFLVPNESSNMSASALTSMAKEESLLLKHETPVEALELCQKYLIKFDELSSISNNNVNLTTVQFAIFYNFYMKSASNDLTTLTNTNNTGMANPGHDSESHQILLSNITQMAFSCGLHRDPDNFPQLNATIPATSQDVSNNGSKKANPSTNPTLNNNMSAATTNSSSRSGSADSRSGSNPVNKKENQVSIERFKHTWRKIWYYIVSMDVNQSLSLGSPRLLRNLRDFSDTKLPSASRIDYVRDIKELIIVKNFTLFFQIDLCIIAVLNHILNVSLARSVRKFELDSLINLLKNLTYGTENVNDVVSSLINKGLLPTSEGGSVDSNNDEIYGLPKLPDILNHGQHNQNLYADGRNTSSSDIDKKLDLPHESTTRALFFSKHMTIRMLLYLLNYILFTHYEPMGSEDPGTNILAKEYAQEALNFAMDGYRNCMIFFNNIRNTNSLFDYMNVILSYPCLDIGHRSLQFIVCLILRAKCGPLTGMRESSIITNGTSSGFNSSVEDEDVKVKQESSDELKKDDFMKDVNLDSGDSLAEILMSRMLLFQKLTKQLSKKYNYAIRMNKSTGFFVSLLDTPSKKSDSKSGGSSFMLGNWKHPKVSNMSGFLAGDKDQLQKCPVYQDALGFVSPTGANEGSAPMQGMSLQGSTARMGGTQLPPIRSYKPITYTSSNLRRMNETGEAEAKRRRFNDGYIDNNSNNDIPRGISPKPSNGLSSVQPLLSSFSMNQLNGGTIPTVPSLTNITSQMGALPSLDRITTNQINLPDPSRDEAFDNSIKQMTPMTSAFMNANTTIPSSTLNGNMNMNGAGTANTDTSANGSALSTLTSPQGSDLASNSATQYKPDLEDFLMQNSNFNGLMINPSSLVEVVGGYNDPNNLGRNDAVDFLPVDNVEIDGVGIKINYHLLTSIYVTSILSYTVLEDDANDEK

| Sequence | PBM E-score |
| --- | --- |
| AAGCCCTC | -0.107 |
| ACACATAC | -0.108 |
| AAAGTGGT | -0.227 |
| ATCAAGCC | -0.153 |
| ATCTCTGA | -0.116 |
| CCTAACCG | 0.022 |
| CAAAACGG | 0.00507 |
| GCTCTTCC | 0.0685 |
| AAACCGAC | 0.198 |
| ACTTGAAG | -0.332 |
| ATTCATCG | 0.0102 |
| CGTGCCGC | 0.0112 |
| ACACTGAG | -0.187 |
| GCTATTAC | -0.00619 |
| GGGAATAC | 0.181 |
| GGATGCCA | -0.203 |
| GGTCAGTA | 0.0181 |
| ACAGTCTA | -0.11 |
| CCACTTGA | -0.131 |
| TAGCACTA | -0.326 |
| AGGTAAAT | -0.116 |
| CGGGGCTC | 0.188 |
| GGTGATAA | 0.378 |
| CTAAACAA | -0.188 |
| ATCCCCCG | 0.366 |

| Sequence | PBM E-score |
| --- | --- |
| ACCAACCT | -0.0487 |
| CGAGGGGA | 0.12 |
| CGTTAATC | 0.219 |
| AAGTTGAC | -0.149 |
| CATCACCC | 0.174 |
| ACAGCGCT | -0.0282 |
| GGAGCAAC | 0.157 |
| CAAAAGCA | -0.0137 |
| GTGAAAAC | -0.0296 |
| AGCGAAGC | -0.0114 |
| GGGAAACC | 0.138 |
| AAATCCGG | 0.475 |
| GAACCGAA | 0.242 |
| TTAATCAA | -0.0922 |
| GTACTATA | -0.0145 |
| CCGAGACC | 0.318 |
| CAGGAAAC | -0.153 |
| AACTTACG | 0.0891 |
| AGTCCTTG | -0.177 |
| GATGGCAA | 0.0888 |
| GGACGGAC | 0.358 |
| TAAAGCTA | -0.282 |
| CGCCGCTA | 0.332 |
| AGTGCCCA | -0.0761 |
| CCGAGACG | 0.339 |

| Sequence | PBM E-score |
| --- | --- |
| CGCAAGAA | 0.16 |
| AACTGCCG | 0.182 |
| ATCGTATC | -0.0262 |
| GCAAGAAA | 0.0211 |
| AATACCGG | 0.451 |
| CGACTTTC | 0.188 |
| GCACAGTA | -0.177 |
| CATGGGAC | -0.118 |
| GCAGGGCC | -0.0879 |
| AACGGTCA | 0.246 |
| CTAATATC | 0.0996 |
| GCCAGATA | 0.0512 |
| ACCATCAA | -0.222 |
| CCGTCAGC | 0.103 |
| CTCACTAA | -0.257 |
| AGCGCATA | -0.0711 |
| AACTGCCA | -0.186 |
| CGCTCAGA | -0.109 |
| CCTTCGGA | 0.364 |
| AGCATACG | -0.0215 |
| ATCCCACG | -0.101 |
| CTTAGGTC | 0.057 |
| CCTATAGC | -0.124 |
| ACGTCATA | -0.177 |
| CCTCGCAG | -0.176 |

| Sequence | PBM E-score |
| --- | --- |
| ACGCCAAT | -0.0288 |
| ATTGTGAG | -0.0587 |
| AATAGACG | -0.0186 |
| CAGTCCGA | 0.366 |
| CCGTGGAG | 0.193 |
| CCTGCCCA | -0.221 |
| CCCTCATC | -0.175 |
| CTGTAAAG | -0.157 |
| CATGCGAA | -0.00622 |
| TAGATACA | -0.281 |
| AAGGCGTC | -0.133 |
| AACCACAG | -0.201 |
| GTCGAGGA | -0.275 |
| ACCATGCC | 0.0287 |
| CAGGCCGG | 0.166 |
| ACGAAATA | -0.0514 |
| GCCGTACC | 0.17 |
| ATCGTCAG | -0.2 |
| CTACTGCA | -0.404 |
| ATCACTGA | -0.281 |
| GAAATATA | 0.197 |
| CAAGAGAG | -0.166 |
| CAGTCAGG | -0.35 |
| CGCCTGTC | -0.0508 |
| CACGCCGA | 0.169 |

| Sequence | PBM E-score |
| --- | --- |
| CCGACACG | 0.222 |
| ATGGGTGA | -0.0877 |
| CTCTCTAC | -0.191 |
| GGGCACCA | -0.0557 |
| CGGTCGCA | 0.186 |
| GTTCCACA | -0.108 |
| GGAGCCAC | -0.129 |
| ACTATTAT | 0.026 |
| ACTGGTTC | 0.0977 |
| CCGCTGCG | 0.078 |
| ATGGTCTC | 0.0286 |
| ATCGAGCA | 0.0429 |
| CGCAGGCA | 0.0216 |
| ATACGTAA | -0.147 |
| CCAACCAG | -0.189 |
| CAAATGGG | -0.279 |
| CTCTCCCC | 0.057 |
| CGTCACGA | -0.0775 |
| CGGCTACA | 0.118 |
| GCTTTTCA | 0.0791 |
| AGGCACTC | -0.149 |
| AATAGATA | -0.00886 |
| GTCACGTA | -0.269 |
| CTCGCGAG | -0.0254 |
| AATGTTGT | -0.288 |

| Sequence | PBM E-score |
| --- | --- |
| CGGTCCCA | 0.206 |
| CCGGCGAA | 0.339 |
| AATCCGGG | 0.409 |
| ACCCTGTC | -0.17 |
| AGTAAGTA | -0.032 |
| GGCATGAA | 0.0616 |
| CCGCGTCC | 0.141 |
| AATGTAAT | 0.0955 |
| AGAACGCC | 0.132 |
| GATTAACC | 0.0378 |
| AATGCAAA | -0.0137 |
| GGCATCTA | -0.0235 |
| GGACGTCA | 0.0606 |
| ATTCTTAG | -0.0927 |
| ACAAACTA | -0.122 |
| ACACCCTG | -0.163 |
| AATTCTCG | 0.046 |
| CCCCCGTC | 0.0755 |
| AGCTCGAT | -0.133 |
| GATCTGGA | -0.135 |
| GAAGCTAA | -0.0495 |
| GCTACTCC | 0.0961 |
| CTGTAAAA | -0.108 |
| ACAGTATA | -0.0777 |
| TATACCAA | 0.00042 |

| Sequence | PBM E-score |
| --- | --- |
| AGTTCTCA | -0.121 |
| GTATTGAA | -0.108 |
| CGGCGAAG | 0.243 |
| AAAAAATA | -0.0105 |
| TCTGGCAA | -0.0495 |
| GCTATCAA | -0.0105 |
| AGGTTATG | -0.0174 |
| CGCGCGTA | 0.233 |
| AACAAATC | -0.00416 |
| TGTCTCAA | -0.209 |
| GTCTACCA | -0.208 |
| CTACGGCC | 0.218 |
| CGTTCCCC | 0.0527 |
| TGAATGCA | -0.0987 |
| CGGGGCAC | 0.0474 |
| CCGGAATC | 0.416 |
| ACGATTTA | 0.0229 |
| GGAATCCA | 0.101 |
| GGTAACGA | -0.113 |
| ACGTATGA | -0.0697 |
| AGACAGTA | -0.134 |
| AGGGGTAG | -0.109 |
| GATTTTCA | 0.0147 |
| GAAAGCTA | 0.115 |
| AACGTCTG | -0.113 |

| Sequence | PBM E-score |
| --- | --- |
| AATATCAT | -0.0352 |
| AATCCTAA | -0.112 |
| TCCACAAA | -0.0163 |
| ACTCAACT | 0.101 |
| AAGCCACT | -0.0869 |
| ACCCCTCC | -0.187 |
| ACGAGACT | -0.17 |
| AAGGAGAT | 0.157 |
| CTAGCAAA | -0.0109 |
| ACCCTACA | -0.133 |
| CCGCAGGC | 0.0553 |
| CATTCGAC | -0.0448 |
| AAGCAGAA | -0.00453 |
| CCTAGTGC | -0.106 |
| AATTGGGC | -0.226 |
| CGCCCCCA | -0.163 |
| GCTACTAA | -0.0899 |
| ATAGCATA | 0.00421 |
| GCCGGGGA | 0.392 |
| GGAGCCAA | 0.0429 |
| AACGCGGA | 0.267 |
| ATTAGGGG | 0.123 |
| ATGGTACA | -0.213 |
| AGGGGTTG | -0.242 |
| TGCGACAA | -0.0385 |

| Sequence | PBM E-score |
| --- | --- |
| GAAGAAGC | -0.0752 |
| ACCCGAAC | 0.297 |
| AGGAAGGG | -0.15 |
| CTCTAGCA | -0.342 |
| CGGCCGTA | 0.417 |
| AATCTTGG | -0.209 |
| ACTGTAGC | -0.222 |
| AAAAAAAA | -0.0113 |
| CCGCCAGG | -0.118 |
| TCCTCCCA | -0.0239 |
| CAGTGAGC | -0.133 |
| CACCCACA | -0.134 |
| GATTATCC | 0.125 |
| CCACGGGA | 0.0887 |
| AGGTACAC | -0.108 |
| TAGACCCA | -0.194 |
| CGTTGAAA | -0.0519 |
| ACGAGATG | -0.051 |
| ATGCGATG | 0.0271 |
